# This is one part of the list. At the low end of the ranking, values are background and their order means little.
# Target: GST-SBP-SLBP (stem-loop binding protein) (UniProt Q14493)
# Assay: targeted RNA Bind-n-Seq;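 also: DESeq read counts versus GST-SBP nonspecific binding control pulldown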
# Conditions: RBNS binding buffer: 25 mM Tris pH 7.5, 150 mM KCl, 3 mM MgCl2, 0.1% Tween, 0.5 mg/mL BSA, 1 mM DTT; 27 nM protein, 750 pM RNA pool; temperature not stated; high values mean tight binding
row,Sequence,binding signal (log2 fold change)
1,GGUCACGUCUCAAUCAACUCUAGUCCAGGAGUUUACUCCUGCAUAUUCAACAGCUCGCAGUCAAG,0.0192
2,GGUCACGUCUCAAUCAACUCAUCUUCAGGAGUUUCCUCCUGUAUUUUCAACAGCUCGCAGUCAAG,-0.1
3,GGUCACGUCUCAAUCAACUCGUCUUCAGGAGUUUCCUCCUGCAUUUUCAACAGCUCGCAGUCAAG,0.145
4,GGUCACGUCUCAAUCAACUCAAUUUCAGGAGUUUUCUCCUGCUAAGUCAACAGCUCGCAGUCAAG,0.047
5,GGUCACGUCUCAAUCAACUCAUUUCCCAGGGAAAGCCCUGGUAUUUUCAACAGCUCGCAGUCAAG,0.159
6,GGUCACGUCUCAAUCAACUCUACUUCAGGAGUUUACUCCUGCAAUCUCAACAGCUCGCAGUCAAG,0.103
7,GGUCACGUCUCAAUCAACUCUCUAGAGGGGGGGAAAACCCCUUUACCCUCAACAUCAACAGCUCGCAGUCAAG,-0.2
8,GGUCACGUCUCAAUCAACUCAACGCCAGGAGUUUCCUCCUGUAUACUCAACAGCUCGCAGUCAAG,0.128
9,GGUCACGUCUCAAUCAACUCUUAAGAGGGGGGGAAAACCCCUUUACCCUCAAUUUCAACAGCUCGCAGUCAAG,-0.121
10,GGUCACGUCUCAAUCAACUCAUCUCCCAGGGAAAGCCCUGGUAAACUCAACAGCUCGCAGUCAAG,-0.377
11,GGUCACGUCUCAAUCAACUCUUUUUCCAGGGAAACCCCUGGUUAUUUCAACAGCUCGCAGUCAAG,-0.21
12,GGUCACGUCUCAAUCAACUCUUUUCCCAGGGAAAGCCCUGGCUAUGUCAACAGCUCGCAGUCAAG,-0.00756
13,GGUCACGUCUCAAUCAACUCAUCCCCAGGAGUUUUCUCCUGUAUACUCAACAGCUCGCAGUCAAG,0.0156
14,GGUCACGUCUCAAUCAACUCAAAAGAGGGGGGGAAAACCCCUUUACCCUCCAUGUCAACAGCUCGCAGUCAAG,-0.293
15,GGUCACGUCUCAAUCAACUCUUCGGAGGGGGGGAAAACCCCUUUACCCUCAUACUCAACAGCUCGCAGUCAAG,-0.315
16,GGUCACGUCUCAAUCAACUCUUUCUCCAGGGAAAUCCCUGGCUUACUCAACAGCUCGCAGUCAAG,-0.0721
17,GGUCACGUCUCAAUCAACUCAUAAGAGGGGGGGAAAACCCCUUUACCCUCAAACUCAACAGCUCGCAGUCAAG,-0.233
18,GGUCACGUCUCAAUCAACUCCAACGAGGGGGGGAAAACCCCUUUACCCUCUCCAUCAACAGCUCGCAGUCAAG,0.00628
19,GGUCACGUCUCAAUCAACUCAAUUUCCAGGGAAAUCCCUGGCAUUUUCAACAGCUCGCAGUCAAG,-0.0666
20,GGUCACGUCUCAAUCAACUCAGUUCCCAGGGAAAGCCCUGGCAUUUUCAACAGCUCGCAGUCAAG,0.449
21,GGUCACGUCUCAAUCAACUCAACUCCCAGGGAAACCCCUGGUUUACUCAACAGCUCGCAGUCAAG,0.0126
22,GGUCACGUCUCAAUCAACUCAUCGUCAGGAGUUUUCUCCUGUAAUUUCAACAGCUCGCAGUCAAG,-0.153
23,GGUCACGUCUCAAUCAACUCAAAAGAGGGGGGGAAAACCCCUUUGCCCUCCAUUUCAACAGCUCGCAGUCAAG,0.219
24,GGUCACGUCUCAAUCAACUCCAAAGAGGGGGGGAAAACCCCUUUACCCUCGAAUUCAACAGCUCGCAGUCAAG,-0.144

row,Sequence,binding signal (log2 fold change)
1,GGUCACGUCUCAAUCAACUCCAAAGAGGGGGGGAAAACCCCUUUGCCCUCAUCGUCAACAGCUCGCAGUCAAG,-0.256
2,GGUCACGUCUCAAUCAACUCAUAAGAGGGGGGGAAAACCCCUUUGCCCUCAUCAUCAACAGCUCGCAGUCAAG,-0.311
3,GGUCACGUCUCAAUCAACUCAUUUUCCAGGGAAACCCCUGGCAAUUUCAACAGCUCGCAGUCAAG,-0.016
4,GGUCACGUCUCAAUCAACUCUUCCUCAGGAGUUUACUCCUGCUAUUUCAACAGCUCGCAGUCAAG,0.0966
5,GGUCACGUCUCAAUCAACUCAACUCCAGGAGUUUGCUCCUGCUUAUUCAACAGCUCGCAGUCAAG,0.000444
6,GGUCACGUCUCAAUCAACUCAAUUUCAGGAGUUUUCUCCUGCAUAUUCAACAGCUCGCAGUCAAG,-0.0376
7,GGUCACGUCUCAAUCAACUCAAUUCCAGGAGUUUACUCCUGCAAAUUCAACAGCUCGCAGUCAAG,0.12
8,GGUCACGUCUCAAUCAACUCAACGCCAGGAGUUUUCUCCUGCAAAUUCAACAGCUCGCAGUCAAG,-0.0289
9,GGUCACGUCUCAAUCAACUCUCAAGAGGGGGGGAAAACCCCUUUACCCUCGUACUCAACAGCUCGCAGUCAAG,0.0261
10,GGUCACGUCUCAAUCAACUCCUCAGAGGGGGGGAAAACCCCUUUACCCUCACACUCAACAGCUCGCAGUCAAG,0.102
11,GGUCACGUCUCAAUCAACUCUUCCCCAGGAGUUUUCUCCUGUAUACUCAACAGCUCGCAGUCAAG,0.123
12,GGUCACGUCUCAAUCAACUCAUUCGAGGGGGGGAAAACCCCUUUACCCUCACAUUCAACAGCUCGCAGUCAAG,-0.295
13,GGUCACGUCUCAAUCAACUCUAUUUCCAGGGAAAGCCCUGGCGUUUUCAACAGCUCGCAGUCAAG,0.021
14,GGUCACGUCUCAAUCAACUCUACUUCCAGGGAAAUCCCUGGCUUUCUCAACAGCUCGCAGUCAAG,-0.163
15,GGUCACGUCUCAAUCAACUCAUUCCCCAGGGAAAGCCCUGGCUUUUUCAACAGCUCGCAGUCAAG,0.512
16,GGUCACGUCUCAAUCAACUCAACUUCAGGAGUUUCCUCCUGCAUUUUCAACAGCUCGCAGUCAAG,0.117
17,GGUCACGUCUCAAUCAACUCAACUUCAGGAGUUUUCUCCUGCUAUGUCAACAGCUCGCAGUCAAG,0.143
18,GGUCACGUCUCAAUCAACUCUUCGUCAGGAGUUUACUCCUGCAAAUUCAACAGCUCGCAGUCAAG,-0.132
19,GGUCACGUCUCAAUCAACUCUUCUCCCAGGGAAAUCCCUGGUUUACUCAACAGCUCGCAGUCAAG,-0.125
20,GGUCACGUCUCAAUCAACUCCUCAGAGGGGGGGAAAACCCCUUUACCCUCCACCUCAACAGCUCGCAGUCAAG,0.326
21,GGUCACGUCUCAAUCAACUCUAUUCCCAGGGAAAUCCCUGGUUUACUCAACAGCUCGCAGUCAAG,-0.113
22,GGUCACGUCUCAAUCAACUCUACUUCAGGAGUUUCCUCCUGCUAAUUCAACAGCUCGCAGUCAAG,0.0446
23,GGUCACGUCUCAAUCAACUCCCACGAGGGGGGGAAAACCCCUUUACCCUCAAUCUCAACAGCUCGCAGUCAAG,0.245
